The source of these data is PubChem BioAssay (NCATS).

A word on the AC50: it is the midpoint of the concentration-response curve, whichever way the signal moves.

Test [1] can be described thus: qHTS drug screen for cell cycle checkpoint inhibitors in PARPi-resistant BRCA-mutant ovarian cancer cell lines. (AID 1963452). To be noted: PEO1/OlaR viability, CellTiter-Glo luminescence, 96 h. The procedure, abridged:
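PEO1, PEO4 and PEO1/OlaR ovarian cancer cells, 600 per well, exposed 96 h at 37C to a dilution series. Viability read by CellTiter-Glo luminescence, normalized to DMSO and empty wells; activity summarized as Z-AUC.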
On the technique in general: qHTS replaces the single test concentration by a dilution series.

Test [2] in a line: qHTS for identification of novel therapeutic agents for treatment of microphthalmiaassociated transcription factor (MiT) renal cell carcinoma (RCC) (AID 1963991). The note with it: CellTiter-Glo, 48 h; for z-score: stronger effect = lower value. The procedure, abridged:
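Curves over 11 concentrations were fitted to CellTiter-Glo luminescence, scaled between empty wells (0%) and DMSO (100%) viability. Cells were UOK109, UOK124 and UOK145 TFE3-fusion RCC lines at 500/well, exposed 48 hours at 37 C.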

Setting [3] is: measured here: PEO1 parental viability.
Setting [4] is: TFE3-RCC UOK109 viability, measured here: UOK109 Z-AUC.
Where [5] appears, read: TFE3-RCC viability, measured here: UOK124 Z-AUC.
Where [6] appears, read: TFE3-RCC viability, measured here: UOK124 cell viability.
Setting [7] is: TFE3-RCC viability, measured here: UOK145 Z-AUC.
The mark [8] stands for this setting: TFE3-RCC viability, measured here: UOK145 cell viability.

The list shows a part of the results. Shown are side measurements of this screen, not its main read-out; they come without a call. For some assays here: Compounds called inactive in the main read-out are mostly missing here. Words in brackets tell the shape of the fitted curve; partial curves, single points and poor fits give uncertain potencies.
Tags tell the direction and shape of the fitted curve.

With `CNC(=O)c1ccccc1Nc1nc(Nc2ccc(N3CCOCC3)cc2OC)ncc1Cl`, the concentration at half-maximal activity (AC50) in test [1] (setting [3]) is 9.77 µM [falling, partial curve]; in test [1] (measured here: PEO4 viability) it was 3.09 µM [falling, partial curve]; in test [2] (setting [6]), 4.69 µM [falling, partial curve]; in test [2] (setting [8]) it was 13.2 µM [falling, partial curve]. For the same compound, the z-score was -0.795 in test [2] (setting [4]), -0.768 in test [2] (setting [5]) and -1.07 in test [2] (setting [7]).
In the case of `N#CC1(c2cccc(C(=O)Nc3cc(Oc4ccc5nc(NC(=O)C6CC6)sc5n4)ccc3F)c2Cl)CC1`, the AC50 is 0.692 µM [falling, full curve] in test [1] (setting [3]); 3.47 µM [falling, single point] in test [1] (measured here: PEO4 viability); 4.69 µM [falling, full curve] in test [2] (setting [6]); 5.9 µM [falling, partial curve] in test [2] (setting [8]). Also, the z-score was -0.611 in test [2] (setting [4]), 0.821 in test [2] (setting [5]) and -0.0429 in test [2] (setting [7]).
For `COc1cc(C(=O)NC2CCN(C)CC2)ccc1Nc1ncc2c(n1)N(C1CCCC1)CCC(=O)N2C(C)C`, the half-maximal activity concentration (AC50) in test [1] (setting [3]) is 24.5 µM [falling, single point]; in test [1] (measured here: PEO4 viability), 24.5 µM [falling, single point]; in test [2] (setting [6]), 5.26 µM [falling, partial curve]; in test [2] (setting [8]) it was 11.8 µM [falling, partial curve]. Besides, the figures for the z-score in test [2] (setting [4]), in test [2] (setting [5]) and in test [2] (setting [7]) were -1.09, -0.619 and -1.08, respectively.
With `C[C@@H](O[C@H]1OCCN(Cc2n[nH]c(=O)[nH]2)[C@@H]1c1ccc(F)cc1)c1cc(C(F)(F)F)cc(C(F)(F)F)c1`, the concentration at half-maximal activity (AC50) is 17.4 µM [falling, single point] in test [1] (setting [3]); 15.5 µM [falling, single point] in test [1] (measured here: PEO4 viability); 23.5 µM [falling, single point] in test [2] (setting [6]); 18.7 µM [falling, partial curve, poor fit] in test [2] (setting [8]). Moreover, the z-score in test [2] (setting [4]) is 0.333; in test [2] (setting [5]) it was -0.0415; in test [2] (setting [7]), 0.106.
For `CC(C)(N)c1ccc(-c2nc3ccccc3nc2-c2ccccc2)cc1`, the half-maximal activity concentration (AC50) in test [1] (setting [3]) is 15.5 µM [falling, single point]; in test [1] (measured here: PEO4 viability), 17.4 µM [falling, single point]; in test [2] (setting [6]) it was 29.6 µM [falling, partial curve]; in test [2] (setting [8]) it was 18.7 µM [falling, partial curve]. The z-score in test [2] (setting [4]) was -0.731; in test [2] (setting [5]), -1.21; in test [2] (setting [7]), -0.04.
